Reference: the supplement of paper PMC3334620
Whole data set: some 33,000 sequences, median “E-score (-0.5 to 0.5)” near -0.056, cut for the highest 2% near 0.38. Some of the results follow.

Each sequence was assayed against Stb4 (UniProt P50104) (assay: PBM E-score (8-mer binding enrichment) (E-score (-0.5 to 0.5)); higher = stronger / more preferred TF binding; most listed sequences are background and not binding sites). Conditions: protein concentration: 200 nM; construct: GST-DNA-binding domain.
Outline: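 GST-tagged yeast TFs (full-length or DNA-binding domain) were made by PURExpress in vitro transcription/translation and applied at about 100-200 nM to universal all-10-mer Agilent arrays. The arrays were made double-stranded by primer extension, on fresh or once-stripped slides. Bound protein was detected with fluorescent anti-GST, and scans were normalised with masliner. Each ungapped eight-base word, pooled with its reverse complement, received an E-score (modified Wilcoxon-Mann-Whitney statistic) from the Universal PBM Analysis Suite.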

Row | Sequence | PBM E-score
1 | GACTTTCA | -0.0727
2 | AGCGGATG | 0.275
3 | ATACACGG | 0.0939
4 | CCGAAGGA | 0.36
5 | ATTCAGAA | -0.241
6 | AGAGCTAC | -0.19
7 | CGGCACTC | 0.137
8 | CACGATCC | 0.276
9 | AGGGGCCC | -0.0968
10 | GCACAAGC | -0.11
11 | CTAATTAG | -0.155
12 | CAAAGCCG | 0.191
13 | GGGAATCA | 0.0543
14 | TAAAGGCA | -0.124
15 | ACAAAAGT | -0.116
16 | AAGGGACG | -0.277
17 | CGAGTAGA | -0.0104
18 | ACAAAATC | 0.0505
19 | ACTTGATG | -0.143
20 | CCTTAAGG | -0.0347
21 | CGCATACG | 0.0121
22 | ATCAGTCC | -0.114
23 | GGGTTGAA | 0.0353
24 | ACCTGCGT | 0.0026
25 | CGCTAGGA | -0.136

Row | Sequence | PBM E-score
26 | GATGGGGA | 0.0613
27 | GAAGTAGC | 0.0639
28 | AACCACAT | -0.111
29 | GTGGCCAA | -0.203
30 | GGCCTTTA | -0.156
31 | TAGAGTAA | -0.182
32 | GTTGGCAA | -0.109
33 | AGATCAAG | -0.095
34 | AAGGTTCG | 0.11
35 | GCCTAACC | -0.0958
36 | TATGTGAA | -0.257
37 | CAAAGTCC | -0.128
38 | GCACATAA | -0.234
39 | CCCCTTCG | 0.0658
40 | CAGCGCCG | 0.163
41 | CAGCAGAC | -0.196
42 | CGGAGAAA | 0.298
43 | AACCTGCC | 0.0449
44 | CCAGGTAC | -0.147
45 | ACGTATCA | -0.234
46 | CCGTGTCC | 0.188
47 | AACTAATA | 0.0302
48 | CCAGGTAA | -0.164
49 | GTTCTGGA | -0.212
50 | AAGAGTGC | -0.155

Row | Sequence | PBM E-score
51 | ACAAGTAT | -0.167
52 | AGTGGTAT | -0.209
53 | AATCGCCA | -0.242
54 | TCCCGAAA | 0.432
55 | TCAAGGAA | -0.186
56 | AGACTTAC | -0.171
57 | ATGCTCCG | 0.328
58 | ACCACCCA | 0.0956
59 | AATTTGGT | 0.113
60 | ACAGGTAA | -0.167
61 | AATGGATG | -0.173
62 | AATGTTTC | 0.131
63 | ACACAACA | -0.174
64 | ATATCTCA | 0.0308
65 | GAGGCTGA | -0.153
66 | GGCGAGTA | 0.0183
67 | GTGACTAA | -0.0958
68 | GCCTAAGA | -0.182
69 | GAGTCCGA | 0.214
70 | ACCCACGA | -0.013
71 | TACGAGTA | 0.0249
72 | TCTCCTCA | -0.126
73 | AAGTAAGC | -0.0584
74 | CCGAGGTC | 0.424
75 | ATCCTTAA | -0.184

Row | Sequence | PBM E-score
76 | GGAGTCTA | -0.0987
77 | GATATAAC | 0.0636
78 | GTGGGGGA | -0.251
79 | CTTCCCAA | -0.191
80 | CGATTGGC | -0.0806
81 | ATCACCCG | 0.369
82 | CTCCAGCC | -0.162
83 | CTCGTCCC | -0.0171
84 | ATTATTTG | -0.21
85 | ACCTTTCG | 0.116
86 | GTCTCTGA | -0.115
87 | CGCTTTAA | -0.114
88 | AATGTCAC | -0.0192
89 | ATTCTGTC | -0.078
90 | ACATAGCT | -0.17
91 | TTGACCAA | -0.141
92 | ACATGGCC | 0.0167
93 | ACAACCTA | -0.112
94 | CGTAACAA | 0.0686
95 | ACGAGTCG | -0.101
96 | CGAAGGAG | 0.039
97 | ATAAACTA | -0.139
98 | ACGTCCGC | 0.132
99 | ACTCGAAA | -0.137
100 | TACATCTA | -0.15

Row | Sequence | PBM E-score
101 | GAGAGACC | -0.122
102 | ACAACCGT | -0.115
103 | CGACGTTA | 0.088
104 | ACTACGGC | -0.0239
105 | CAAGCGGC | 0.0985
106 | GACGCGGC | 0.0303
107 | ACTTGACA | -0.05
108 | CTCTTTAC | -0.0924
109 | GTTGTCAA | -0.107
110 | GCACATGA | -0.117
111 | CCCGGTCA | 0.131
112 | GGAATACC | 0.214
113 | AGAAAACC | -0.00717
114 | GCTATTAA | -0.108
115 | TCACTTAA | -0.0915
116 | AAGCCCCT | 0.0485
117 | ATATTGAC | 0.0712
118 | GTAATACA | -0.0668
119 | ACCATTAG | -0.021
120 | CTGTTCTC | -0.0405
121 | CGACAAAG | 0.126
122 | AAGTTTTC | 0.0553
123 | ATTCCTGC | 0.0722
124 | CGCGAACC | 0.166
125 | CAAATCTA | -0.211

Row | Sequence | PBM E-score
126 | CCCTCGGC | 0.399
127 | GAGTCTCC | 0.0629
128 | GCAAACAC | -0.151
129 | GAACCCGA | 0.338
130 | CAGAACGC | -0.126
131 | GCACTACC | -0.0127
132 | AAAAGAAA | -0.0451
133 | GCAATCCC | 0.19
134 | GAATGAAC | -0.0152
135 | AGGTAACA | -0.199
136 | ACAGTCGA | -0.284
137 | AAGCAGCG | -0.0524
138 | AGTTCTGA | -0.16
139 | ATTCCGGG | 0.353
140 | AGGTAATC | -0.00217
141 | CGCGTATC | 0.0553
142 | ATAAGACA | -0.0364
143 | CAACTTCA | -0.205
144 | TGGGAACA | 0.00069
145 | AAAGGGCA | -0.194
146 | CTGCTTAC | -0.188
147 | ACAACAGC | -0.0598
148 | AGCCCACG | -0.0831
149 | AAAGTCCT | 0.0233
150 | ACGCAAAG | -0.156

Row | Sequence | PBM E-score
151 | GTGTCTAA | -0.208
152 | ACGACTTG | -0.168
153 | GTCCTATA | -0.205
154 | CATGAAGA | -0.172
155 | AAGGGAGT | -0.138
156 | CGACGATA | 0.0643
157 | AAATGCAA | -0.314
158 | AACGTGGA | -0.218
159 | AGACGAAG | -0.0901
160 | CTTGAAAG | -0.157
161 | CTATAGGC | -0.143
162 | GCGCGAGC | -0.0587
163 | CCACCGAG | 0.207
164 | ACTTGTAT | -0.1
165 | GGGCAACC | -0.0889
166 | ACACTATG | -0.102
167 | AGCTCAAG | -0.271
168 | ATCAATCC | 0.067
169 | CCGTCGAA | 0.0663
170 | ACGAGGTA | -0.0352
171 | AAATATTA | -0.0429
172 | CCCCATAG | -0.101
